Measured values reported in US20260327262A1, “BICYCLIC PEPTIDE LIGANDS SPECIFIC FOR EPHA2” (BicycleTx Limited, priority 2019, published 2026).

Biological target: human EphA2 (Homo sapiens, UniProt P29317)
Assay: Competition Binding Assay (fluorescence polarisation, competition with fluorescent tracer BCY90)
Experimental: Peptides without a fluorescent tag were tested in competition with a peptide with a fluorescent tag and a known Kd.
Peptides were diluted to an appropriate concentration in assay buffer as described in the direct binding assay with a maximum of 5% DMSO, then serially diluted 1 in 2. […] Measurements were conducted, however the gain was determined prior to the first measurement. Data analysis was in Systat Sigmaplot version 12.0 where the mP values were fit to a user defined cubic equation to generate a Ki value: • f=ymax+(ymin−ymax)/Lig*((Lig*((2*((Klig+Kcomp+Lig+Comp−Prot*c)^2−3*(Kcomp*(Lig−Prot*c)+Klig*(Comp−Prot*c)+Klig*Kcomp))^0.5*COS(ARCCOS((−2*(Klig+Kcomp+Lig+Comp−Prot*c)^3+9*(Klig+Kcomp+Lig+Comp−Prot*c)*(Kcomp*(Lig−Prot*c)+Klig*(Comp−Prot*c)+Klig*Kcomp)−27*(−1*Klig*Kcomp*Prot*c))/(2*((((Klig+Kcomp+Lig+Comp−Prot*c)^2−3*(Kcomp*(Lig−Prot*c)+Klig*(Comp−Prot*c)+Klig*Kcomp))^3)^0.5)))/3))−(Klig+Kcomp+Lig+Comp−Prot*c)))/((3*Klig)+((2*((Klig+Kcomp+Lig+Comp−Prot*c)^2−3*(Kcomp*(Lig−Prot*c)+Klig*(Comp−Prot*c)+Klig*Kcomp))^0.5*COS(ARCCOS((−2*(Klig+Kcomp+Lig+Comp−Prot*c)^3+9*(Klig+Kcomp+Lig+Comp−Prot*c)*(Kcomp*(Lig−Prot*c)+Klig*(Comp−Prot*c)+Klig*Kcomp)−27*(−1*Klig*Kcomp*Prot*c))/(2*((((Klig+Kcomp+Lig+Comp−Prot*c)^2−3*(Kcomp*(Lig−Prot*c)+Klig*(Comp−Prot*c)+Klig*Kcomp))^3)^0.5)))/3))−(Klig+Kcomp+Lig+Comp−Prot*c)))). […]

Chain of human EphA2 (P29317 24-976): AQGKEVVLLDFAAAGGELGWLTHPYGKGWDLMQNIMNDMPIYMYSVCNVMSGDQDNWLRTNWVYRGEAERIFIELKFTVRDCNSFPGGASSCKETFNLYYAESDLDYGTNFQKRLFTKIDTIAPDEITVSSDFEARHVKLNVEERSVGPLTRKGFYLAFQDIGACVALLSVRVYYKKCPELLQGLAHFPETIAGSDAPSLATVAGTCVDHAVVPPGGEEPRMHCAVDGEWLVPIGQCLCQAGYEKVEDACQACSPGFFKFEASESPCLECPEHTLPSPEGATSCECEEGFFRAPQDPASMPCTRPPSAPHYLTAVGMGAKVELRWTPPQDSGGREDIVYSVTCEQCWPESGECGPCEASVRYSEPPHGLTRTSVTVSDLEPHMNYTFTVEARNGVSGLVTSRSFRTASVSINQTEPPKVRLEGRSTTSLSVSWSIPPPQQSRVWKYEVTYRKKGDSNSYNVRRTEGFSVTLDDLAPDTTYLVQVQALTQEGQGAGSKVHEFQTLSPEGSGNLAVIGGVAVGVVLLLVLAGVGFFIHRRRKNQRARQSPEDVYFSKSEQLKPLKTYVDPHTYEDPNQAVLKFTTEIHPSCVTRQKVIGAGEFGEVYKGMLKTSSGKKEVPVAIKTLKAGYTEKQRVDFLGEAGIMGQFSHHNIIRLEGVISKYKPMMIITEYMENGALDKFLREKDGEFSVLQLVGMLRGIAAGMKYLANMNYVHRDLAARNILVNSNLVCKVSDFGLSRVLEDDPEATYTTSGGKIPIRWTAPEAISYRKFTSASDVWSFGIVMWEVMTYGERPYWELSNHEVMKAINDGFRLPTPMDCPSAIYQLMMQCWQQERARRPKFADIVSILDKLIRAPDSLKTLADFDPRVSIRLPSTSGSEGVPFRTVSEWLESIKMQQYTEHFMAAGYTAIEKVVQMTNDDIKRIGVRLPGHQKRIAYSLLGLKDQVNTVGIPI

Substance | Ki
A-[HArg]-D-Ci[HyP]LVNPLCiiLHP[d1Nal]W[HArg]Ciii [BCY13116] | 1.13 nM
A-[HArg]-D-Ci[HyP]LVNPLCiiL[3,3-DPA]P[dD]W[HArg]Ciii [BCY12866] | 0.244 nM
